In patent publication US8067379B2, “Sulfur compounds as inhibitors of hepatitis C virus NS3 serine protease” (Schering Corporation, priority 2004, dated 2011):

These molecules were tested against Recombinant heterodimeric HCV NS3/NS4A protease (strain 1a) (Hepatitis C virus genotype 1a, UniProt P27958) (assay: Spectrophotometric assay for HCV serine protease inhibitory activity (chromogenic ester substrates)). Conditions: Table 3A; cells that print a number instead of a class symbol; read-out: Ki* Range.
Type: biochemical
For `CCC[C@H](NC(=O)[C@@H]1[C@@H]2[C@H](CN1C(=O)[C@@H](NC(=O)NC1(CS(=O)(=O)C3(C)CCCCC3)CCCCC1)C(C)(C)C)C2(C)C)C(=O)C(=O)NC1CC1` [Compound 739], the Ki was 18 nM.

Same assay, conditions: Table 3A; class symbols; read-out: Ki* Range
`C=CCNC(=O)C(=O)[C@H](CC1CC1)NC(=O)[C@@H]1CC2(CN1C(=O)[C@@H](NC(=O)NC1(CS(=O)(=O)C(C)(C)C)CCCCC1)C(C)(C)C)SCCCS2` [Compound 732] gave a Ki of less than 75 nM. Work on `C=CCNC(=O)C(=O)[C@H](CC1CC1)NC(=O)[C@@H]1[C@@H]2[C@H](CN1C(=O)[C@@H](NC(=O)NC1(CS(=O)(=O)C3CCCC3)CCCCC1)C1CCCCC1)C2(C)C` [Compound 733] yielded a Ki of less than 75 nM. In the case of `C=CCNC(=O)C(=O)[C@H](CCCC)NC(=O)[C@@H]1[C@@H]2[C@H](CN1C(=O)[C@@H](NC(=O)NC1(CS(=O)(=O)C3CCCC3)CCCCC1)C1CCCCC1)C2(C)C` [Compound 734], the Ki is reported as less than 75 nM. In the case of `C=CCNC(=O)C(=O)[C@H](CC1CC1)NC(=O)[C@@H]1[C@@H]2[C@H](CN1C(=O)[C@@H](NC(=O)NC1(CS(=O)(=O)C(C)(C)C)CCCCC1)C1(C)CCCC1)C2(C)C` [Compound 735], the Ki is reported as less than 75 nM. Work on `CCCCC(NC(=O)[C@@H]1[C@@H]2[C@H](CN1C(=O)[C@@H](NC(=O)NC1(CS(=O)(=O)C(C)(C)C)CCCCC1)C(C)(C)C)C2(C)C)C(=O)C(=O)NCc1cccnc1` (stereo partly drawn) [Compound 736] yielded a Ki of less than 75 nM. In the case of `CC(C)(C)[C@H](NC(=O)NC1(CS(=O)(=O)C(C)(C)C)CCCCC1)C(=O)N1C[C@H]2[C@@H]([C@H]1C(=O)NC(CC1CC1)C(=O)C(=O)NCc1cccnc1)C2(C)C` (stereo partly drawn) [Compound 737], the Ki is reported as less than 75 nM. `CCCC(NC(=O)[C@@H]1[C@@H]2[C@H](CN1C(=O)[C@@H](NC(=O)NC1(CS(=O)(=O)C(C)(C)C)CCCCC1)C(C)(C)C)C2(C)C)C(=O)C(=O)NCc1cccnc1` (stereo partly drawn) [Compound 738] was tested, and the Ki was less than 75 nM. In the case of `C=CCNC(=O)C(=O)[C@H](CCC1CC1)NC(=O)[C@@H]1[C@@H]2[C@H](CN1C(=O)[C@@H](NC(=O)NC1(CS(=O)(=O)C(C)(C)CO)CCCCC1)C(C)(C)C)C2(C)C` [Compound 740], the Ki is reported as less than 75 nM. In the case of `CC(C)(C)[C@H](NC(=O)NC1(CS(=O)(=O)C(C)(C)CO)CCCCC1)C(=O)N1C[C@H]2[C@@H]([C@H]1C(=O)N[C@@H](CCC1CC1)C(=O)C(=O)NC1CC1)C2(C)C` [Compound 743], the Ki is reported as less than 75 nM. Molecule `C=CCNC(=O)C(=O)[C@H](CC1CC1)NC(=O)[C@@H]1[C@@H]2[C@H](CN1C(=O)[C@@H](NC(=O)NC1(CS(=O)(=O)C(C)(C)CO)CCCCC1)C(C)(C)C)C2(C)C` [Compound 744] has a Ki of less than 75 nM. Molecule `C=CCNC(=O)C(=O)[C@H](CC1CC1)NC(=O)[C@@H]1[C@@H]2[C@H](CN1C(=O)[C@@H](NC(=O)NC1(CS(=O)(=O)C(C)(C)CO)CCCCC1)C1(C)CCCCC1)C2(C)C` [Compound 745] has a Ki of less than 75 nM. Molecule `CC(C)(C)[C@H](NC(=O)NC1(C2CCCS2(=O)=O)CCCCC1)C(=O)N1C[C@H]2[C@@H]([C@H]1C(=O)N[C@@H](CCC1CC1)C(=O)C(=O)NC1CC1)C2(C)C` (stereo partly drawn) [Compound 746] has a Ki of less than 75 nM. `C=CCNC(=O)C(=O)[C@H](CC1CC1)NC(=O)[C@@H]1[C@@H]2[C@H](CN1C(=O)[C@@H](NC(=O)NC1(CS(=O)(=O)C(C)(C)COC3CCCCO3)CCCCC1)C(C)(C)C)C2(C)C` (stereo partly drawn) [Compound 747] gave a Ki of less than 75 nM. Molecule `C=CCNC(=O)C(=O)[C@H](CC1CC1)NC(=O)[C@@H]1[C@@H]2[C@H](CN1C(=O)[C@@H](NC(=O)NC1(CS(=O)(=O)C(C)(C)COC3CCCCO3)CCCCC1)C1(C)CCCCC1)C2(C)C` (stereo partly drawn) [Compound 749] has a Ki of less than 75 nM. `C=CCNC(=O)C(=O)[C@H](CCC1CC1)NC(=O)[C@@H]1[C@@H]2[C@H](CN1C(=O)[C@@H](NC(=O)NC1(CS(=O)(=O)C(C)(C)CF)CCCCC1)C(C)(C)C)C2(C)C` [Compound 750] gave a Ki of less than 75 nM. For `C=CCNC(=O)C(=O)[C@H](CC1CC1)NC(=O)[C@@H]1[C@@H]2[C@H](CN1C(=O)[C@@H](NC(=O)NC1(CS(=O)(=O)C(C)(C)CF)CCCCC1)C(C)(C)C)C2(C)C` [Compound 751], the Ki was less than 75 nM. With `C=CCNC(=O)C(=O)[C@H](CC1CC1)NC(=O)[C@@H]1[C@@H]2[C@H](CN1C(=O)[C@@H](NC(=O)NC1(CS(=O)(=O)C(C)(C)COC)CCCCC1)C(C)(C)C)C2(C)C` [Compound 752] the Ki was less than 75 nM.
